{
  "source": "PubChem BioAssay AID1347120",
  "about": "(National Center for Advancing Translational Sciences (NCATS), 2019)",
  "note": "Hit rate of the full screen: of about 390,000 compounds, about 930 (0.24%) were called active. Inconclusive means that the source gave no clear call. Such entries were picked first, then a sample of the others. Calls come from the whole dose curve; as a rule, active = well fitted activation curve with a large enough effect; inconclusive = small, poorly fitted or top-dose-only effect; inactive = no such curve, though single readings can be large or run the other way. Potencies of inconclusive entries are doubtful fits and often do not repeat. Potency is the fitted concentration of half-maximal effect; tags give direction and shape of the fitted curve.",
  "data": [
    {"test": "qHTS for Suppressors of FUS Proteinopathy: Primary screen using FUS-linked yeast assay; note: nearly all actives have a fitted effect of over 55% in size;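 for growth rescue (activation): plate controls were DMSO vehicle for no effect and reference control for full effect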", "conditions": "S. cerevisiae FUS-expressing, OD600, 24 h; Potency: growth rescue; growth rescue (activation): at 76.6 µM (top of the series)", "summary_of_the_method": "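Quantitative HTS measuring growth restoration of FUS-toxic yeast. Galactose-induced cells (OD 0.005) were exposed 24hr at 30C to compounds at several concentrations, then absorbance at 600 nm was recorded.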", "values": [
      {"smiles": "CN1CCN(C2=CC3=CC(=C(C#N)C#N)CCC3CC2)CC1", "note": "(stereo unspecified)", "Potency": "inactive"},
      {"smiles": "O=C(O)c1ccccc1NS(=O)(=O)c1cccc(C(F)(F)F)c1", "Potency": "inactive"},
      {"smiles": "COc1ccc(NC(=O)Nc2cccc3c2O[C@H](CN(C)C(=O)Nc2c(C)noc2C)[C@@H](C)CN([C@H](C)CO)C3=O)cc1", "Potency": "inconclusive: 2.51 µM [activator, full curve]"},
      {"smiles": "COc1cccc(C(c2sc3nc(-c4ccco4)nn3c2O)N2CCC(C)CC2)c1", "note": "(stereo unspecified)", "Potency": "inconclusive: 22.4 µM [activator, partial curve]"},
      {"smiles": "CC(C)(C)c1cc(Cl)c(O)c(NC(=S)NC(=O)c2cccnc2)c1", "Potency": "inactive"},
      {"smiles": "Cc1ccccc1Cn1cc(COC(=O)NCCc2c[nH]c3ccccc23)nn1", "Potency": "inconclusive: 50.1 µM [activator, single point]"},
      {"smiles": "CC(=O)Nc1cc2c(cc1C(=O)c1ccccc1)OCCO2", "Potency": "inconclusive: 0.891 µM [activator, full curve, poor fit]"},
      {"smiles": "COc1cc(C2c3[nH]c4ccccc4c3C[C@H]3C(=O)N(C4CC4)CC(=O)N23)ccc1OC(C)C", "note": "(stereo partly specified)", "Potency": "inconclusive: 35.5 µM [activator, single point]"},
      {"smiles": "Cc1cccc(NC(=S)N2CCC(C(=O)c3ccc(F)cc3)CC2)c1", "Potency": "inconclusive: 3.98 µM [activator, full curve]"},
      {"smiles": "COC(=O)[C@]12C[C@H](CC(=O)N3CCCC3)C(=O)N(Cc3cccc4ccccc34)C1=C[C@H](COCc1ccccc1)O[C@@H]2C", "Potency": "inconclusive: 31.6 µM [activator, single point]"},
      {"smiles": "Cc1ccc(C(=O)N(CC(=O)Nc2sc(C)c(C)c2C(N)=O)C2CCCC2)cc1", "Potency": "inactive"},
      {"smiles": "COc1ccc(N(CC(=O)Nc2ccccc2C(=O)O)S(=O)(=O)c2ccc(C)c([N+](=O)[O-])c2)cc1", "Potency": "inconclusive: 35.5 µM [activator, partial curve, poor fit]"},
      {"smiles": "COC(=O)CCC(=O)OC1(C)C(=O)C2=CN(C3CCCC3)C(c3ccc(OC)cc3)=CC2=C(Br)C1=O", "note": "(stereo unspecified)", "Potency": "inconclusive: 31.6 µM [activator, single point]"},
      {"smiles": "CCOc1ccc(CNC(=O)c2ccc(CSc3nc4ccncc4n3Cc3ccc(F)cc3)cc2)cc1", "Potency": "inconclusive: 20 µM [activator, single point]"},
      {"smiles": "COc1cc2c(c(OC)c1OC)-c1ccc(NCc3ccccc3)c(=O)cc1C(NC(C)=O)CC2", "note": "(stereo unspecified)", "Potency": "inconclusive: 31.6 µM [activator, single point]"},
      {"smiles": "N/C(Cc1ccc([N+](=O)[O-])cc1)=N\\OC(=O)Cc1ccccc1", "Potency": "inactive"},
      {"smiles": "CSc1ncccc1C(=O)N1CCN(S(=O)(=O)c2ccc3ccccc3c2)CC1", "Potency": "inconclusive: 35.5 µM [activator, single point]"},
      {"smiles": "COc1ccc(-c2ccc3[nH]c4c(c3c2)CCN2C(=O)[C@@H]([C@H](C)O)[C@@H](N(C)C(=O)Nc3cc(Cl)cc(Cl)c3)C[C@@H]42)cc1", "Potency": "inconclusive: 44.7 µM [activator, single point]"},
      {"smiles": "COc1ccc(NC(=O)CC2C(=O)N(c3ccccc3)C(=O)N2CCc2sccc2C)cc1", "note": "(stereo unspecified)", "Potency": "inconclusive: 35.5 µM [activator, single point]"},
      {"smiles": "COc1ccc(Cl)cc1NC(=O)COC(=O)/C=C/c1c(C)nn(C2CCS(=O)(=O)C2)c1Cl", "note": "(stereo unspecified)", "Potency": "inconclusive: 50.1 µM [activator, single point]"},
      {"smiles": "Cc1cc(=O)n(CC(=O)Nc2ccc(Cl)c(Cl)c2)c(-n2nc(C)cc2C)n1", "Potency": "inconclusive: 50.1 µM [activator, single point]"},
      {"smiles": "COC(=O)[C@]12CCCCC=C1N(Cc1ccc(Cl)cc1Cl)C(=O)[C@H](CC(=O)NCc1cccs1)C2", "Potency": "inconclusive: 31.6 µM [activator, single point]"},
      {"smiles": "ClCc1nc2ccccc2c2ccccc12", "Potency": "inactive"},
      {"smiles": "CCCC1NC(=O)c2cc3ccccc3cc2-n2c1nc1cc(F)ccc1c2=O", "note": "(stereo unspecified)", "Potency": "inconclusive: 50.1 µM [activator, single point]"},
      {"smiles": "C=C1[C@@H](OC(C)=O)CC[C@]2(C)[C@@H]1C[C@@H]1C[C@H](OC(C)=O)C(C)=C([C@@H](OC(C)=O)[C@@H]2OC(C)=O)C1(C)C", "Potency": "inconclusive: 12.6 µM [activator, partial curve]"},
      {"smiles": "O=C(CSc1nnc(COc2ccccc2)n1-c1ccccc1)Nc1ccc2c(c1)OCO2", "Potency": "inactive"},
      {"smiles": "COCCCNC(=O)CCNS(=O)(=O)c1ccc(C)cc1", "growth rescue (activation)": "inconclusive: 10.6% [activator]"},
      {"smiles": "CCOC(=O)[C@]12Cc3c(cc(OC)c(OC)c3OC)[C@H]1N(Cc1ccccc1)C(=O)c1cc(F)c(F)cc12", "Potency": "inconclusive: 39.8 µM [activator, single point]"},
      {"smiles": "COc1ccc2c(CNCCc3ccco3)c(C(=O)O)n(Cc3ccc(C)cc3)c2c1", "Potency": "inconclusive: 31.6 µM [activator, single point]"},
      {"smiles": "O=C(/C=C/c1ccco1)NC(=S)Nc1ccccc1N1CCCC1", "Potency": "inconclusive: 35.5 µM [activator, single point]"},
      {"smiles": "Cc1ccc(-n2ncc3c(NCCCN(C)C)ncnc32)cc1Cl", "Potency": "inactive"},
      {"smiles": "Cc1cc(C)nc(SCC(=O)c2ccc(O)c(O)c2)n1", "Potency": "inactive"},
      {"smiles": "COc1ccc(/C=C2\\Sc3ccc(C(=O)N4CCN(Cc5ccccc5)CC4)cc3N(C)C2=O)cc1OC", "Potency": "inconclusive: 14.1 µM [activator, partial curve, poor fit]"},
      {"smiles": "COc1cccc(NC(=O)CN2C(=O)CSc3ccc(S(=O)(=O)N4CCCCC4)cc32)c1", "Potency": "inconclusive: 39.8 µM [activator, single point]"},
      {"smiles": "COc1ccc2c(c1)c1ncn(CCc3ccccc3)c(=O)c1n2C", "Potency": "inactive"},
      {"smiles": "CC(C)CSc1nnc(-c2ccco2)n1C", "Potency": "inactive"},
      {"smiles": "COc1ccc2oc(-c3cccc(NC(=O)c4cc([N+](=O)[O-])ccc4N4CCOCC4)c3)nc2c1", "Potency": "inconclusive: 17.8 µM [activator, partial curve, poor fit]"},
      {"smiles": "C[C@H](CO)N1C[C@H](C)[C@@H](CN(C)C(=O)NC2CCCCC2)Oc2c(NC(=O)Nc3ccc4c(c3)OCO4)cccc2C1=O", "Potency": "inactive"},
      {"smiles": "COc1cc(C2c3c(-c4c(C)cc(C)cc4O)n[nH]c3C(=O)N2Cc2ccco2)cc(OC)c1OC", "note": "(stereo unspecified)", "Potency": "inactive"},
      {"smiles": "CC(C)(C)c1cc(C(=O)NCC(=O)OCC(=O)c2cccc([N+](=O)[O-])c2)cc(C(C)(C)C)c1", "Potency": "inconclusive: 50.1 µM [activator, single point]"},
      {"smiles": "Cc1cc(-c2nnc(CCC(=O)N(CC3CCC3)CC3CCCO3)o2)no1", "note": "(stereo unspecified)", "Potency": "inactive"},
      {"smiles": "CCOC(=O)c1[nH]c2c(c1Cc1ccccc1)C(=O)CC(c1ccc(C(C)(C)C)cc1)C2", "note": "(stereo unspecified)", "Potency": "inconclusive: 39.8 µM [activator, partial curve, poor fit]"},
      {"smiles": "COc1ccc(-c2noc(CSc3nnc(Cc4ccccc4)n3-c3ccc(F)cc3)n2)cc1", "Potency": "active: 14.1 µM"},
      {"smiles": "C=CCn1c(SCc2csc(C)n2)nc2sc3c(c2c1=O)CCCC3", "Potency": "inconclusive: 28.2 µM [activator, partial curve, poor fit]"},
      {"smiles": "CCN(CC)CCCNC(=O)c1sc2nc3n(c(=O)c2c1C)CCCCC3", "Potency": "inactive"},
      {"smiles": "COc1cc(C(=O)N2CCCCC2c2cc(C(=O)Nc3ccccc3)no2)cc(OC)c1C", "note": "(stereo unspecified)", "Potency": "inconclusive: 31.6 µM [activator, single point]"},
      {"smiles": "Cc1cc(C)cc(N(CC(=O)Nc2c(C)cc(C)cc2C)S(=O)(=O)c2c(C)nn(C)c2C)c1", "Potency": "inconclusive: 8.91 µM [activator, partial curve]"},
      {"smiles": "CCN(CC)S(=O)(=O)c1cc(-c2ccc(=O)n(C(C)C(=O)Nc3cccc(C#N)c3)n2)ccc1C", "note": "(stereo unspecified)", "Potency": "inconclusive: 28.2 µM [activator, single point]"},
      {"smiles": "CCc1cccc(NC(=O)C2CCN(c3ncnc4sc(C)c(C)c34)CC2)c1", "Potency": "inconclusive: 31.6 µM [activator, single point]"},
      {"smiles": "CCCn1c2ccccc2c2cnn(CC(=O)N3CCCC(C(=O)OCC)C3)c(=O)c21", "note": "(stereo unspecified)", "Potency": "inconclusive: 2.82 µM [activator, full curve]"},
      {"smiles": "Cc1cc(/C=N/NC(=O)c2cccc([N+](=O)[O-])c2)c(C)n1-c1ccc(Cl)cc1Cl", "Potency": "inconclusive: 25.1 µM [activator, partial curve, poor fit]"},
      {"smiles": "CCCCN(CCCC)C(=O)c1c[nH]c2ccc(S(=O)(=O)Nc3cccc(Cl)c3C)cc2c1=O", "Potency": "inconclusive: 20 µM [activator, partial curve, poor fit]"},
      {"smiles": "COCCn1c(SCC(=O)NNC(=O)c2ccccc2)nc2ccccc2c1=O", "Potency": "inactive"},
      {"smiles": "COC(=O)CN1C(C(=O)c2ccccc2)=C(OC(=O)c2ccccc2)c2ccccc2S1(=O)=O", "Potency": "inconclusive: 10 µM [activator, partial curve, poor fit]"},
      {"smiles": "CN1CCS/C1=C/C=C1/SC(=S)N(Cc2ccccc2)C1=O", "Potency": "inconclusive: 25.1 µM [activator, single point]"},
      {"smiles": "CCCSCCCNC(=O)Cn1c(-c2cccs2)cc2ccccc21", "Potency": "inactive"},
      {"smiles": "CC1(c2nnnn2Cc2ccccc2)CCCC(=O)N1Cc1cccs1", "note": "(stereo unspecified)", "Potency": "inconclusive: 3.55 µM [activator, partial curve, poor fit]"},
      {"smiles": "Cc1ccc(-n2ncc(C(=O)NCCN3CCC(Cc4ccccc4)CC3)c2C2CCN(C(=O)OC(C)(C)C)CC2)cc1", "Potency": "inconclusive: 14.1 µM [activator, partial curve]"},
      {"smiles": "CC1C(=O)N2CCCc3cc(NC(=O)C(=O)NCc4ccc5c(c4)OCO5)cc1c32", "note": "(stereo unspecified)", "Potency": "inconclusive: 17.8 µM [activator, partial curve]"},
      {"smiles": "Cc1ccc(C2=CC(c3ccccc3)n3ncnc3N2)cc1", "note": "(stereo unspecified)", "Potency": "inactive"},
      {"smiles": "Cc1cc2cc(C(c3nnnn3Cc3ccccc3)N3CCc4ccccc43)c(=O)[nH]c2cc1C", "note": "(stereo unspecified)", "Potency": "inconclusive: 28.2 µM [activator, partial curve, poor fit]"}
    ]}
  ]
}
